{
  "source": "paper PMC8437142",
  "about": "(The Journal of physiology, 2021)",
  "tested_on": "phospho-p38 MAPK",
  "conditions": "microglia, C3-C5 ventral horn, ~4.5 hours post-drug injection; morphine 4 mg/kg",
  "note": "Structures can show the parent of a compound that is named as a salt.",
  "data": [
    {"smiles": "CN1CC[C@]23c4c5ccc(O)c4O[C@H]2[C@@H](O)C=C[C@H]3[C@H]1C5", "note": "[Morphine, Morphine sulfate]", "values": [
      {"measurement": "increase in phospho-p38 MAPK intensity in CD11b-positive cells versus vehicle-treated controls", "value": "23 ± 7", "unit": "%"}
    ]}
  ]
}
